The text below walks through data of article PMC6919601, “Identification of Plasmodium dipeptidyl aminopeptidase allosteric inhibitors by high throughput screening” (PLoS ONE, 2019).

The structures appear in SMILES notation. Out of some 110,000 compounds screened, about 230 (0.21%) showed an effect of 50% or more. The list shows a part of the results.
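Further: 30 min substrate incubation versus DMSO and 10 µM JCP410 controls.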

Sequence of DPAP1 (Q8IIJ9 whole entry, looked up): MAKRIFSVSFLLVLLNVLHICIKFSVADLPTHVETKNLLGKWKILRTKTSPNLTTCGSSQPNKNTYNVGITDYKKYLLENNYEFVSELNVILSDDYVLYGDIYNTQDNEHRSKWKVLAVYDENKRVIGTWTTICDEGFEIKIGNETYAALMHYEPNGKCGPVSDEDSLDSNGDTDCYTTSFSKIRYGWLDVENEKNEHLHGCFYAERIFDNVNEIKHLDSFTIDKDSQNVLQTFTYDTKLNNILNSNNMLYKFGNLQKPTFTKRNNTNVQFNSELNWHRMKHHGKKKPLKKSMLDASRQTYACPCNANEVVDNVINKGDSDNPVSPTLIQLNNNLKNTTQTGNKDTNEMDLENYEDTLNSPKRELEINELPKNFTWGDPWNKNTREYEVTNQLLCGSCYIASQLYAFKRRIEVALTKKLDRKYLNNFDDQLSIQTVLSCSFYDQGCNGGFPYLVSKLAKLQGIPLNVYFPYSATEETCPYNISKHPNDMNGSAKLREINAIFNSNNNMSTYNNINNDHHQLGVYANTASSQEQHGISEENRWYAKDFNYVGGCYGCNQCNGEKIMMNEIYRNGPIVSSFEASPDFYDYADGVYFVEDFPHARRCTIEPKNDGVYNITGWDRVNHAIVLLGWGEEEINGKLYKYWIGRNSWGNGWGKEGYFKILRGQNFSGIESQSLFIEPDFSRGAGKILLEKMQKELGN

This assay concerns the target DPAP1 (Plasmodium falciparum, UniProt Q8IIJ9). As to the kind of experiment: primary screen, percent inhibition; read by cleavage of a fluorogenic dipeptide substrate; higher = more effect of the substance. Set-up: species or system P. falciparum D10 trophozoite lysates; single well.
In the case of `Cc1ccc(S(=O)(=O)NC(Cc2ccccc2)C(=O)O)cc1C` (stereo not drawn), the “% Inhibition @ 10 uM” value was -5.08%.

Consider `CCC(C)NC(=O)CN(Cc1ccc(Br)cc1)S(=O)(=O)c1ccc(Cl)cc1` (stereo not drawn), for which the “% Inhibition @ 10 uM” value turned out to be 5.24%. The result for `CN(C)CC(C)(C)CNC1CCCCCC1` reads -1.21%; that for `Cc1nc2sccn2c(=O)c1S(=O)(=O)NC(C)c1ccccc1` (stereo not drawn), 1.13%; that for `N#Cc1nc(COc2ccc(Br)cc2)oc1NCCCn1ccnc1`, 0.343%. For `Cc1ccc(NS(=O)(=O)c2ccc(NC(=O)[C@@H]3CCCC[C@@H]3C(=O)O)cc2)c(C)c1`, the “% Inhibition @ 10 uM” value was determined as 10.3%. Under `CC(C)(C)c1cc(C(=O)CCN2CCOCC2)cc(C(C)(C)C)c1O` stands -7.8%; under `O=C(CSc1nc2ccccc2[nH]1)Nc1nncs1`, -2.39%; under `Cc1ccccc1-n1c(C)cc(C(=O)O)c1C`, 2.1%. With `CCCC1=C(O)C2N=CC=CC2=[N+](c2ccccn2)C1=O` (stereo not drawn), the “% Inhibition @ 10 uM” value is given as 0.235%. Under `Cc1cc(O)c(C2=NCCSC(c3cccc([N+](=O)[O-])c3)C2)c(=O)o1` (stereo not drawn) stands -5.28%. Consider `CCCCOc1ccc(C2C(C#N)=C(N)Oc3[nH]nc(C(C)(C)C)c32)cc1` (stereo not drawn), for which the “% Inhibition @ 10 uM” value came out at 0.919%. Consider `CCCC(C)n1nc(O)c2c1NC(=O)CSC2c1ccccc1` (stereo not drawn), for which the “% Inhibition @ 10 uM” value was -0.666%.

Take `CCOC(=O)C(Cc1c[nH]c2ccccc12)NC(=O)c1ccccc1Cl` (stereo not drawn): the “% Inhibition @ 10 uM” value came out at 0.035%. In the case of `N#C/C(=C/c1cn(Cc2ccccc2)c2ccccc12)C(=O)NCC1CCCO1` (stereo not drawn), the “% Inhibition @ 10 uM” value is listed as 0.131%.

As to `O=C(NCc1ccncc1)NC12CC3CC(CC(C3)C1)C2`, the “% Inhibition @ 10 uM” value is on record as -4.42%. For the compound `CCCNCc1c(C(=O)O)c(C)n(Cc2cccc(Cl)c2)c1C`, the “% Inhibition @ 10 uM” value is recorded as -1.92%. As to `Cn1c(/C(C#N)=C(\O)c2ccc(S(=O)(=O)N3CCCCC3)cc2)nc2ccccc21`, the “% Inhibition @ 10 uM” value was determined as 17.4%.

On to `COc1cccc(C(=O)N2CCc3ccccc32)c1`, for which the “% Inhibition @ 10 uM” value was -1.49%.

Consider `COc1cc(/C=C2\Sc3ccccc3C2=O)c(Br)cc1O`, for which the “% Inhibition @ 10 uM” value came to 4.86%.

As for `CC(C)c1ccc(NC(=O)COc2ccccc2)cc1`, the “% Inhibition @ 10 uM” value is on record as -0.67%. The result for `Cc1cc(C)n(CCc2nc3c4ccccc4nc(NCCc4c[nH]c5ccccc45)n3n2)n1` reads -0.692%. For `CC1=C(CCN(C)CCc2ccccn2)C(C)(C)CCC1`, the “% Inhibition @ 10 uM” value is recorded as -2.02%.

As for `O=C(O)COc1ccc2cc(Br)ccc2c1Br`, the “% Inhibition @ 10 uM” value is listed as -1.29%. For the compound `CCOc1ccc(N2CC(C(=O)Nc3cc(C(C)(C)C)ccc3OC)CC2=O)cc1` (stereo not drawn), the “% Inhibition @ 10 uM” value is reported as -5.29%. Under `CCC(C)NC(=O)Nc1cn(C)c(=O)c2ccccc12` (stereo not drawn) stands 4.68%; under `CCOC(=O)c1c(CSCCN(CC)CC)oc2ccc(OC)cc12`, 3.66%. `COC(=O)/C=c1/sc2n(c1=O)C(C)=CC(C)(C)N=2`: the “% Inhibition @ 10 uM” value is on record as 4.08%.

As to `Cc1c2cnn(CC(=O)N3CCC4(CC3)OCCO4)c(=O)c2c(C)n1Cc1ccccc1F`, the “% Inhibition @ 10 uM” value is given as -5.81%. Consider `CCCn1cc2c(c1-c1ccc(Cl)cc1)c(=O)n(C)c(=O)n2C`, for which the “% Inhibition @ 10 uM” value was 0.366%. Take `O=C(O)c1cc(-c2cccc(Cl)c2)nc2[nH]nc(-c3ccccc3)c12`: the “% Inhibition @ 10 uM” value was -4.18%. As for `CCOC(=O)c1c(-c2cccs2)csc1N`, the “% Inhibition @ 10 uM” value was found to be 4.33%. Under `O=C(N/C(=C\c1ccco1)C(=O)N1CCN(C/C=C/c2ccccc2)CC1)c1ccccc1` stands 2.09%. Regarding `CC(C)N(CCCNC(=O)c1cc2sccc2n1C)Cc1ccccc1`, the “% Inhibition @ 10 uM” value is on record as -4.85%. The result for `O=C(O)c1sc2ccccc2c1Nc1ccccc1` reads 4.57%; that for `O=C(NCC1CCCO1)c1cnn(-c2ccccc2)c1-n1cccc1` (stereo not drawn), -7.1%; that for `O=C(CN1CCCC1)Nc1ccc(Cc2ccc(NC(=O)CN3CCCC3)cc2)cc1`, -0.865%. Under `CC1=C(c2ccc(C)cc2)S(=O)(=O)N=C1NC1CCCC(C)C1C` (stereo not drawn) stands 3.87%. For the compound `COc1ccc(C2C3C(=NN2C(C)=O)C2CCN3CC2)cc1OC` (stereo not drawn), the “% Inhibition @ 10 uM” value is reported as -7.27%. Under `COc1cc(C(=O)Nc2ccc(C)c(F)c2)ccc1OC(F)F` stands 0.316%; under `CCn1cc(/C=C(\NC(=O)c2ccccc2OC)C(=O)NCc2ccccc2)c2ccccc21`, -7.27%; under `COc1ccc(CNCC(=O)O)cc1`, 1.42%. Turning to `CC(=O)OC(C)CC#CCN1CCCC1` (stereo not drawn), the “% Inhibition @ 10 uM” value turned out to be 3.48%.

Take `O=C(Nc1ccc(Oc2ccc(Cl)cc2)cc1)C1CCCN1S(=O)(=O)c1ccccc1` (stereo not drawn): the “% Inhibition @ 10 uM” value is reported as -1.79%. With `COc1ccccc1OCCCCc1c(C)n[nH]c1C`, the “% Inhibition @ 10 uM” value is -0.833%.

On to `O=C(NC(c1ccccc1)c1ccccc1)c1nnc(O)c2ccccc12`, for which the “% Inhibition @ 10 uM” value is given as -2.63%. Under `CC(C)CC(NC(=O)c1cccc(NC(=O)N2CCC(N(C)C)CC2)c1)C(=O)NCC#N` (stereo not drawn) stands -2.35%. For `O=C(O)CN(Cc1ccccc1)Cc1ccccc1`, the “% Inhibition @ 10 uM” value is recorded as -2.66%. Take `COc1ccc(C)cc1N(CC(=O)N1CCCC1)S(C)(=O)=O`: the “% Inhibition @ 10 uM” value is on record as -10%. As for `CC(C)(C)c1ccccc1OCC(O)CN1CCN(Cc2ccc3c(c2)OCO3)CC1` (stereo not drawn), the “% Inhibition @ 10 uM” value is -1.26%. In the case of `COc1ccc(/C=C2\N=C(SC)NC2=O)cc1`, the “% Inhibition @ 10 uM” value is -0.0508%.
